From the supplement of paper PMC11417369
± gives the standard deviation of the averaged measurements. Some of the results follow.

Each sequence was assayed on PfAP2-I AP2 domain 3 (GST-tagged) (assay: gcPBM binding intensity (ln(normalized median fluorescence intensity)); higher = stronger DNA binding).
In short: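 DNA-binding domains from P. falciparum, fused to GST and produced in E. coli, were put on an Agilent 4 × 180k double-stranded probe array for 1 h in 1× PBS holding 1% milk, 0.2 mg/ml BSA, 0.5% salmon testes DNA and 0.03% Triton X-100. Probes were primer-extended, 36 bp long and drawn from intergenic genomic regions, with negative controls included. After Alexa488 anti-GST antibody detection and a 488 nm scan, binding intensity was set as the highest Masliner-normalised natural-log median intensity across replicate spots of either probe orientation.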
With “AATATGTAAATATGGGTGCTTTAAAATATATTCATT [GTGCAC_site9583]” the “gcPBM binding intensity (ln)” value was 11.1 ± 0.66.
With “TTCCAATGATAAAATTGTACTTGAAGAAAATTTTTT [XGTACX_site4607]” the “gcPBM binding intensity (ln)” value was 7.36 ± 0.57.
“ATATATATATGGAAGTGTACTTATATAGCATACTAG [XGTACX_site5130]” was tested, and the “gcPBM binding intensity (ln)” value was 9.035 ± 0.078.
For “TACGTATCATAATTTTATTTTATATATATTCACAAA [XGTACX_negctrl_site144]”, the “gcPBM binding intensity (ln)” value was 7.62 ± 0.58.
“AGCGTATAACATATGACACACACACCGACATACACA [CACACA_site8532]” was tested, and the “gcPBM binding intensity (ln)” value was 8.07 ± 0.54.
In the case of “AAATTTTTATAATTATCACACATTGAATTGTGGTCT [CACACA_site4343]”, the “gcPBM binding intensity (ln)” value is reported as 7.65 ± 0.79.
For “ATTCACAAATATATGGTGCATAATATATATATATAT [GTGCAC_site9674]”, the “gcPBM binding intensity (ln)” value was 11.31 ± 0.078.
With “AACAATTATTGTAATGCATGCACTGAATATAGAAAG [TGCATGCA_site889]” the “gcPBM binding intensity (ln)” value was 9.45 ± 0.67.
For “CTATTTAAAATATGAACACACATTATTTGTTTTAGA [CACACA_site2713]”, the “gcPBM binding intensity (ln)” value was 7.42 ± 0.43.
For “AATATAGGAATATGCACACATATATACCTACATACA [CACACA_site4939]”, the “gcPBM binding intensity (ln)” value was 9.03 ± 0.028.
In the case of “AAAAAAAAAAATACTAGTACGTAAAATTATATAAAT [XGTACX_site3019]”, the “gcPBM binding intensity (ln)” value is reported as 7.74 ± 0.67.
For “ATATCATTATATAGTTGTACATATTTATTTATTTAT [XGTACX_site8995]”, the “gcPBM binding intensity (ln)” value was 7.88 ± 0.31.
“GATATGTGTATAATATGTACATATATATATATATAT [XGTACX_site6531]” was tested, and the “gcPBM binding intensity (ln)” value was 9.46 ± 0.49.
“ATTTCCCATACACGTTGTACAATGTAGAGAAAGTAT [XGTACX_site4586]” was tested, and the “gcPBM binding intensity (ln)” value was 7.9 ± 0.47.
“AAAGAAAGAAAACACACACACATATATATATATCAA [CACACA_site3743]” was tested, and the “gcPBM binding intensity (ln)” value was 7.75 ± 0.45.
In the case of “TTTTTGTCTGCATACGCACACACGTGGACCATCTTA [CACACA_site8303]”, the “gcPBM binding intensity (ln)” value is reported as 8.81 ± 0.71.
In the case of “TATATATATATATGTACACACACACCGATAAATAAA [CACACA_site8041]”, the “gcPBM binding intensity (ln)” value is reported as 9.52 ± 0.13.
With “CTTTATTATAAGATTACACACATGTGTTCTAATTTA [CACACA_site7479]” the “gcPBM binding intensity (ln)” value was 7.75 ± 0.53.
With “TATAAACAAAACAAAACATGCATAATACTATAAATT [TGCATGCA_site333]” the “gcPBM binding intensity (ln)” value was 7.81 ± 0.85.
With “TAATTAACTTTATATGCATGTTAAAAATGTTATAAG [TGCATGCA_site761]” the “gcPBM binding intensity (ln)” value was 7.71 ± 0.35.
In the case of “TTTATTAAGAAACACACACACACACCCAAAATAAAA [CACACA_site242]”, the “gcPBM binding intensity (ln)” value is reported as 8.4 ± 0.18.
“AACAAAATAAAAAGTAATCTTATTTATTAAAATTTT [CACACA_negctrl_site419]” was tested, and the “gcPBM binding intensity (ln)” value was 7.25 ± 0.43.
“TTTTGGTTAATTCCCCCCATTACATTATGTCATGTC [CACACA_negctrl_site229]” was tested, and the “gcPBM binding intensity (ln)” value was 9.77 ± 0.3.
“TTTCATTTTTTTACATGTACGCAAAAGTGTGTAGTT [XGTACX_site6582]” was tested, and the “gcPBM binding intensity (ln)” value was 8.23 ± 0.3.
